The list shows a part of the results. The list includes weakly bound sequences.
target: T1, MBP-FoxP3dN (UniProt Q99JB6); test: PD-seq (MBP pull-down with sequencing); conditions: 20 mM Tris-HCl pH 7.5, 100 mM NaCl, 1.5 mM MgCl2, 0.4 uM protein, 0.1 uM dsDNA library, 30 min, room temperature, amylose pull-down; high values mean tight binding; double strand, one strand shown
T1 sequence: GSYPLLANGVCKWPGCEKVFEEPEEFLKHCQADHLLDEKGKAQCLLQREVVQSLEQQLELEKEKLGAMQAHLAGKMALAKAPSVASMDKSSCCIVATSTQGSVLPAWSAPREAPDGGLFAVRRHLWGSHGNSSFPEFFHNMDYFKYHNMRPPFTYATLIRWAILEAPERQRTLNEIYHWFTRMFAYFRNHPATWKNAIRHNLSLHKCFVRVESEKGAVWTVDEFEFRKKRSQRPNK

Sequence | binding signal (RPM ratio (pull-down/input))
GATGATTGTTCTCCCAGCTGATGAATTCCAGCAGTCGAGTAAACAAATTTTCCTAATCTTTCTGTTCAAGCGCCATCTAC | 0.31
GATGATTGTTCTCCCAGCTGATGAATTGTTCGACTCGAGTAAACAAATTTTCCTAATCTTTCTGTTCAAGCGCCATCTAC | 0.414
GATGATTGTTCTCCCAGCTGATGAATTCGAAGGTTCGAGTAAACAAATTTTCCTAATCTTTCTGTTCAAGCGCCATCTAC | 0.327
GATGATTGTTCTCCCAGCTGATGAATTGCTTGGCTCGAGTAAACAAATTTTCCTAATCTTTCTGTTCAAGCGCCATCTAC | 0.655
GATGATTGTTCTCCCAGCTGATGAATTTTCAACTTCGAGTAAACAAATTTTCCTAATCTTTCTGTTCAAGCGCCATCTAC | 0.307
GATGATTGTTCTCCCAGCTGATGAATTTCACTTTTCGAGTAAACAAATTTTCCTAATCTTTCTGTTCAAGCGCCATCTAC | 0.374
GATGATTGTTCTCCCAGCTGATGAATTACGATTATCGAGTAAACAAATTTTCCTAATCTTTCTGTTCAAGCGCCATCTAC | 1.47
GATGATTGTTCTCCCAGCTGATGAATTTGATGTTTCGAGTAAACAAATTTTCCTAATCTTTCTGTTCAAGCGCCATCTAC | 5.38
GATGATTGTTCTCCCAGCTGATGAATTTGACGTGTCGAGTAAACAAATTTTCCTAATCTTTCTGTTCAAGCGCCATCTAC | 1.63
GATGATTGTTCTCCCAGCTGATGAATTCAGCTAGTCGAGTAAACAAATTTTCCTAATCTTTCTGTTCAAGCGCCATCTAC | 1
GATGATTGTTCTCCCAGCTGATGAATTGCCCGCATCGAGTAAACAAATTTTCCTAATCTTTCTGTTCAAGCGCCATCTAC | 1.19
GATGATTGTTCTCCCAGCTGATGAATTGATGCCGTCGAGTAAACAAATTTTCCTAATCTTTCTGTTCAAGCGCCATCTAC | 2.25
GATGATTGTTCTCCCAGCTGATGAATTTGAACCATCGAGTAAACAAATTTTCCTAATCTTTCTGTTCAAGCGCCATCTAC | 0.355
GATGATTGTTCTCCCAGCTGATGAATTGTTACCTTCGAGTAAACAAATTTTCCTAATCTTTCTGTTCAAGCGCCATCTAC | 0.786
GATGATTGTTCTCCCAGCTGATGAATTATAAATCTCGAGTAAACAAATTTTCCTAATCTTTCTGTTCAAGCGCCATCTAC | 0.432
GATGATTGTTCTCCCAGCTGATGAATTCTTCCGGTCGAGTAAACAAATTTTCCTAATCTTTCTGTTCAAGCGCCATCTAC | 0.162
GATGATTGTTCTCCCAGCTGATGAATTACATTGGTCGAGTAAACAAATTTTCCTAATCTTTCTGTTCAAGCGCCATCTAC | 0.839
GATGATTGTTCTCCCAGCTGATGAATTCTACCGGTCGAGTAAACAAATTTTCCTAATCTTTCTGTTCAAGCGCCATCTAC | 0.227
GATGATTGTTCTCCCAGCTGATGAATTAGTCCGGTCGAGTAAACAAATTTTCCTAATCTTTCTGTTCAAGCGCCATCTAC | 0.251
GATGATTGTTCTCCCAGCTGATGAATTCAGTTAATCGAGTAAACAAATTTTCCTAATCTTTCTGTTCAAGCGCCATCTAC | 0.432

Sequence | binding signal (RPM ratio (pull-down/input))
GATGATTGTTCTCCCAGCTGATGAATTCAATTAATCGAGTAAACAAATTTTCCTAATCTTTCTGTTCAAGCGCCATCTAC | 0.37
GATGATTGTTCTCCCAGCTGATGAATTTTCTTTGTCGAGTAAACAAATTTTCCTAATCTTTCTGTTCAAGCGCCATCTAC | 1.15
GATGATTGTTCTCCCAGCTGATGAATTCTAACAGTCGAGTAAACAAATTTTCCTAATCTTTCTGTTCAAGCGCCATCTAC | 0.317
GATGATTGTTCTCCCAGCTGATGAATTCATAACATCGAGTAAACAAATTTTCCTAATCTTTCTGTTCAAGCGCCATCTAC | 1.5
GATGATTGTTCTCCCAGCTGATGAATTGCACGGTTCGAGTAAACAAATTTTCCTAATCTTTCTGTTCAAGCGCCATCTAC | 0.772
GATGATTGTTCTCCCAGCTGATGAATTTATTCATTCGAGTAAACAAATTTTCCTAATCTTTCTGTTCAAGCGCCATCTAC | 0.689
GATGATTGTTCTCCCAGCTGATGAATTATGTACATCGAGTAAACAAATTTTCCTAATCTTTCTGTTCAAGCGCCATCTAC | 1.67
GATGATTGTTCTCCCAGCTGATGAATTAACCCATTCGAGTAAACAAATTTTCCTAATCTTTCTGTTCAAGCGCCATCTAC | 0.277
GATGATTGTTCTCCCAGCTGATGAATTTCCTCGGTCGAGTAAACAAATTTTCCTAATCTTTCTGTTCAAGCGCCATCTAC | 0.156
GATGATTGTTCTCCCAGCTGATGAATTAATCCGCTCGAGTAAACAAATTTTCCTAATCTTTCTGTTCAAGCGCCATCTAC | 0.237
GATGATTGTTCTCCCAGCTGATGAATTTCTGAAATCGAGTAAACAAATTTTCCTAATCTTTCTGTTCAAGCGCCATCTAC | 0.238
GATGATTGTTCTCCCAGCTGATGAATTCGCGTGCTCGAGTAAACAAATTTTCCTAATCTTTCTGTTCAAGCGCCATCTAC | 1.27
GATGATTGTTCTCCCAGCTGATGAATTGGGCACCTCGAGTAAACAAATTTTCCTAATCTTTCTGTTCAAGCGCCATCTAC | 0.839
GATGATTGTTCTCCCAGCTGATGAATTATAGATGTCGAGTAAACAAATTTTCCTAATCTTTCTGTTCAAGCGCCATCTAC | 0.554
GATGATTGTTCTCCCAGCTGATGAATTGACAAGATCGAGTAAACAAATTTTCCTAATCTTTCTGTTCAAGCGCCATCTAC | 0.29
GATGATTGTTCTCCCAGCTGATGAATTAACCGGCTCGAGTAAACAAATTTTCCTAATCTTTCTGTTCAAGCGCCATCTAC | 0.172
GATGATTGTTCTCCCAGCTGATGAATTGCTAAGATCGAGTAAACAAATTTTCCTAATCTTTCTGTTCAAGCGCCATCTAC | 0.398
GATGATTGTTCTCCCAGCTGATGAATTTTTGGTATCGAGTAAACAAATTTTCCTAATCTTTCTGTTCAAGCGCCATCTAC | 0.444
GATGATTGTTCTCCCAGCTGATGAATTCCCATTGTCGAGTAAACAAATTTTCCTAATCTTTCTGTTCAAGCGCCATCTAC | 0.454
GATGATTGTTCTCCCAGCTGATGAATTCGCTATCTCGAGTAAACAAATTTTCCTAATCTTTCTGTTCAAGCGCCATCTAC | 1.05

From publication PMC12820563
